Experiment [1] concerns the target HA-KDM6A (UniProt O15550). Description: co-IP; HEK293T cells transfected with HA-KDM6A and Myc-SND1 constructs; immunoprecipitation and western blot with tag antibodies. (Immunoblotting shows a protein as a band on a membrane.)
The target in experiment [2] is HA-KDM6A 400–1000aa (UniProt O15550). Described as above.
Experiment [3] has as its target HA-KDM6A 1-400aa (UniProt O15550). The experiment is described as above.
Experiment [4] has as its target KDM6A (bait of the co-IP with mass spectrometry and of the co-IP with Ku70; endogenous or tagged not told) (UniProt O15550). Description: co-IP; co-IP of Ku70 and PCNA with KDM6A and SND1, with or without CPT (Supplementary Figure S2); cells and constructs not given.
Experiment [5] has as its target SND1 (co-IP with Ku70 and PCNA; endogenous or tagged not told) (UniProt Q7KZF4). The description is as above.
Experiment [6] addresses KDM6A D1216N (UniProt O15550). Description: co-IP; Kyse150 cells co-transfected with the plasmid of SND1 and KDM6A mutants identified in ESCC patients; western blot with specific antibodies.
Experiment [7] addresses KDM6A H101D & P110S (UniProt O15550). Described as above.
In experiment [8] the target is KDM6A (endogenous) (human (endogenous in HEK293T, HeLa, Kyse150, TE1)) (UniProt O15550). Description: co-IP; endogenous proteins, KDM6A antibody, ESCC cells Kyse150 and TE1.
The target of experiment [9] is Flag-RPA1 (human (cDNA from HEK293T cells)) (UniProt P27694). Description: co-IP; immunoprecipitation of Flag-RPA1 from HEK293T cells, untreated or treated with HU for 1 h and released into fresh medium; western blot with specific antibodies.

Sequences of proteins named here, by UniProt entry; tags and fusion partners are left off. A change or cut given only in a name is not applied to a line headed by its entry. Residues count along the entry.
UniProt O15550: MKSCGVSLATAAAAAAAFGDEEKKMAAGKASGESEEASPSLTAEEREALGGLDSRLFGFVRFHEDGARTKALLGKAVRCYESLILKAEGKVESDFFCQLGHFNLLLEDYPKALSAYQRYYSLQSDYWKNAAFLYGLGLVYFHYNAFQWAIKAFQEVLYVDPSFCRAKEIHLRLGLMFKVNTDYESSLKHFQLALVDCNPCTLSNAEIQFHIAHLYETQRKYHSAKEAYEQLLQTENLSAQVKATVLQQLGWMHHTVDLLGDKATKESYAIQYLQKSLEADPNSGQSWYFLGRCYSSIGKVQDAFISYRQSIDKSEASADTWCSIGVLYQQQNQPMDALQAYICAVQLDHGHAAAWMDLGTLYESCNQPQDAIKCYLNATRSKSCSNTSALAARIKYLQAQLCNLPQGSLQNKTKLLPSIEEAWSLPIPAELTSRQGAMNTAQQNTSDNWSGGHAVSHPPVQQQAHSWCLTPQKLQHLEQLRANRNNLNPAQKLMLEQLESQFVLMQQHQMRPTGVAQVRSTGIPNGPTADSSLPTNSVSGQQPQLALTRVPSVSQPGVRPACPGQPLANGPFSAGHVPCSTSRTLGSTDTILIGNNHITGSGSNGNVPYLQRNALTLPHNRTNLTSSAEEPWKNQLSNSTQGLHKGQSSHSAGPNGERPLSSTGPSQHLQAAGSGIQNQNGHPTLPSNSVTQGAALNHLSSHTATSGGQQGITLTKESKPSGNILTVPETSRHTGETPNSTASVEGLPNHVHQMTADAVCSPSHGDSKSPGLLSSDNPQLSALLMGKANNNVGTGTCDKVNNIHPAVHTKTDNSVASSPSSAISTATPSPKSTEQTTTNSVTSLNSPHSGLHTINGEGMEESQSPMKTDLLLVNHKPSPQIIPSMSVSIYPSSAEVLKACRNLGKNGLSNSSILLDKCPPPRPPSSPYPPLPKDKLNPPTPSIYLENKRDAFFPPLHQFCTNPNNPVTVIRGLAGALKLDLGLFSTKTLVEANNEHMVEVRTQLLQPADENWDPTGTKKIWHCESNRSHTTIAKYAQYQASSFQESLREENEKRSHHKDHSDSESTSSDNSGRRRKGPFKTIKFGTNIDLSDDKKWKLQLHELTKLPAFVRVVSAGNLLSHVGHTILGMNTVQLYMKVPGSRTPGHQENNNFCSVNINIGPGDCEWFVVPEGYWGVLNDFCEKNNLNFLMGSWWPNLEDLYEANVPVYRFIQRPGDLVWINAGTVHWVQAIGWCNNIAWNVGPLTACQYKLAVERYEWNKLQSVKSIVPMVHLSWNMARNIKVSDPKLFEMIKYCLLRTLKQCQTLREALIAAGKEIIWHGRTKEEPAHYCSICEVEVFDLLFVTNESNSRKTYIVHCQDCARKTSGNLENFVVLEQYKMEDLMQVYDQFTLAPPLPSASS
HA-KDM6A 1-400aa: residues 1-400 of O15550
HA-KDM6A 400–1000aa: residues 400-1000 of O15550
UniProt Q7KZF4: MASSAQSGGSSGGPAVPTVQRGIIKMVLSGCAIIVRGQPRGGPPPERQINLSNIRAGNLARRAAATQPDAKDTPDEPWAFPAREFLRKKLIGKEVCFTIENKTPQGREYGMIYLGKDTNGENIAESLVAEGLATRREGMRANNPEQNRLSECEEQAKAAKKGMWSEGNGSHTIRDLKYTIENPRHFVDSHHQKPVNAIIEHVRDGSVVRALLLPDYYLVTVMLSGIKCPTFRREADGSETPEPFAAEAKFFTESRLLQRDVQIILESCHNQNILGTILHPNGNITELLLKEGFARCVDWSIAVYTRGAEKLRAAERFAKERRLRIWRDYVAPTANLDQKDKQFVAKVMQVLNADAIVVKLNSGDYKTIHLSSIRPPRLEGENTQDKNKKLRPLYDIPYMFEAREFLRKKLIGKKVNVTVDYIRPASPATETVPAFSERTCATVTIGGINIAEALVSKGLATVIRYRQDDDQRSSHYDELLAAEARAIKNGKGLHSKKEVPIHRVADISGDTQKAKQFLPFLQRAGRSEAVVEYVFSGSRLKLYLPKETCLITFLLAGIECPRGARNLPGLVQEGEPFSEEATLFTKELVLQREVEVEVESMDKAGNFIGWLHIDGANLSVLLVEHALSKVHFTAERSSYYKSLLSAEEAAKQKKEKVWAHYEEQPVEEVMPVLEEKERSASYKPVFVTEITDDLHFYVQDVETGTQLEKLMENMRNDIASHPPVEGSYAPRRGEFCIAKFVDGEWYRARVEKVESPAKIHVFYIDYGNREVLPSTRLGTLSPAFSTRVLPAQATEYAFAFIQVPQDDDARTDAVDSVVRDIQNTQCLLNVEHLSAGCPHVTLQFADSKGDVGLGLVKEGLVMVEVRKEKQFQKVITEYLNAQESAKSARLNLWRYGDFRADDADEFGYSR
UniProt P27694: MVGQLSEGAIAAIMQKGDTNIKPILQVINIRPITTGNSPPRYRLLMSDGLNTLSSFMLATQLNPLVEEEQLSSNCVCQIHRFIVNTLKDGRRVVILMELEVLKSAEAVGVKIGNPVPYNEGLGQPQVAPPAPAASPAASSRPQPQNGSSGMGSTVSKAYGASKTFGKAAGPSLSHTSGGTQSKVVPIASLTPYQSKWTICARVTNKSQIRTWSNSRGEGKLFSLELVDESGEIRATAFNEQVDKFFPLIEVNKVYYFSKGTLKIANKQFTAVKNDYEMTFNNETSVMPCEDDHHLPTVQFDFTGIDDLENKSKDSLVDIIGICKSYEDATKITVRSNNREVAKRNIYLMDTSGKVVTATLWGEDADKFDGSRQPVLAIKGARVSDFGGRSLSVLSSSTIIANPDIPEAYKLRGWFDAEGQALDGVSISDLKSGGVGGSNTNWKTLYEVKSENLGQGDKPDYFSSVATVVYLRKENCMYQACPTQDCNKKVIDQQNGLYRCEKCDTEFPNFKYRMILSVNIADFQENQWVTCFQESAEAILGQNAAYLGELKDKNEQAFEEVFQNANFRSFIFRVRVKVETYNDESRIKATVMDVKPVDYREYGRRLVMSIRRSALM
UniProt P12956: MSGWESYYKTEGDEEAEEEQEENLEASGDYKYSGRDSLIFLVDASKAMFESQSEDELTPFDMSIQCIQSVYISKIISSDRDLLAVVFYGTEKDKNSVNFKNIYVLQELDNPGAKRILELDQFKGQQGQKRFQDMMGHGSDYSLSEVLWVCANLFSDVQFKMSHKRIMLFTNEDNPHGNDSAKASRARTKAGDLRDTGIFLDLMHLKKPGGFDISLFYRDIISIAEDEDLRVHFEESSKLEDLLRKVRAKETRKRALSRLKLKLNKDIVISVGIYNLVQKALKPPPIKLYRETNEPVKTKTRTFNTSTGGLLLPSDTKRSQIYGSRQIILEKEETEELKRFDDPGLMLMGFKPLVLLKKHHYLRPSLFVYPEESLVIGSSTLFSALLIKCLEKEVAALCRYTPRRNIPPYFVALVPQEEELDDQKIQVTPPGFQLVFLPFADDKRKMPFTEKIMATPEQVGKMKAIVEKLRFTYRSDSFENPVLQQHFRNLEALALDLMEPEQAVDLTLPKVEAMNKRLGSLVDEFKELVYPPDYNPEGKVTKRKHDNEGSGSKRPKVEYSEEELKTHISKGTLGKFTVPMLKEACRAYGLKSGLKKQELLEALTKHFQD
UniProt P12004: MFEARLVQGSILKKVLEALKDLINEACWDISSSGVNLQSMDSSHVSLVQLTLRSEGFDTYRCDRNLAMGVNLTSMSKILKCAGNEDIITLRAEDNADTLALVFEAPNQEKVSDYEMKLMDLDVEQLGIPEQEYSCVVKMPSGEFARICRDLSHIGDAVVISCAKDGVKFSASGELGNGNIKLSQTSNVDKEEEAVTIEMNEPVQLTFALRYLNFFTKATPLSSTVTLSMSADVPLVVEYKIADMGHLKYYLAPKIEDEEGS

These are yes or no findings as the source states them, for the method shown. In cells and extracts the contact can be indirect. Some results given as binding are weak or reduced against the parent protein; the word gives no strength.

The text below walks through data of paper PMC11260493.

Take 3Myc-SND1 (from UniProt Q7KZF4 1-910): the values for the binding result in experiment [1], in experiment [2] and in experiment [3] were “binds”, “no binding” and “binds”, respectively.
For Ku70 (from UniProt P12956 1-609), the binding entry in experiment [4] is “binds”; in experiment [5] it was “no binding”.
Regarding PCNA (from UniProt P12004 1-261), in experiment [5], the binding result is on record as “no binding”.
For “SND1 (plasmid co-transfected in Kyse150 cells) (from UniProt Q7KZF4 1-910)”, the binding result in experiment [6] and in experiment [7] was “binds” throughout.
In the case of “staphylococcal nuclease domain-containing protein 1 (SND1), endogenous (from UniProt Q7KZF4 1-910)”, the binding entry in [8] and in experiment [9] was “binds” each time.
